# In the supplement of paper PMC11417369:
# ± gives the standard deviation of the averaged measurements. This is one part of the list.
# Tested on: PfAP2-G AP2 domain (GST-tagged)
# Assay: gcPBM binding intensity (ln(normalized median fluorescence intensity)); higher = stronger DNA binding
# Method in brief: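 Plasmodium falciparum DNA-binding domains carrying a GST tag were expressed in E. coli and applied for 1 h, at about 25 μg on average, to an Agilent 4 × 180k array. The array held primer-extended double-stranded 36-bp intergenic genomic probes together with negative controls, and binding took place in 1× PBS with 1% milk, 0.2 mg/ml BSA, 0.5% salmon testes DNA and 0.03% Triton X-100. An Alexa488 anti-GST antibody detected bound protein, and the array was scanned at 488 nm. Binding intensity is taken as the highest Masliner-normalised natural-log median intensity across replicate spots of either probe orientation.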
row,Sequence,gcPBM binding intensity (ln)
1,AATAATATTTAATACACACACCAGTTCTGCAAATTT [CACACA_site7712],10.3 ± 0.2
2,GAAAAAAGAAATTAAACATGCATCTGCAAATTTAAA [TGCATGCA_site974],9.37 ± 0.35
3,ACATAATAAAAATAAATTCATAAGTAAATAAATAAA [TGCATGCA_negctrl_site186],9.88 ± 0.24
4,TGCTACATTTTATGTACACACATATACAGATATATA [CACACA_site4646],11.4 ± 0.88
5,TGAATAAATCAAAGCACACATACACCCACATATATA [CACACA_site286],10.3 ± 0.31
6,CTAAAAAATAGTAAAAGTACATAAATAATTTTGCTT [XGTACX_site8919],11.3 ± 0.83
7,CATAAATTACTTTTTACACACTAAAATAAAATACAA [CACACA_site1135],10.2 ± 0.25
8,AATACACGCAGACACACACACACACGCACATATATA [CACACA_site6447],10.3 ± 0.19
9,ACAATTATTTTGTTCTTTAATGGTAGGTTCTATGTC [CACACA_negctrl_site1419],10.1 ± 0.14
10,AAAAAAAAATATAACAGTACATAAACATATGAATAT [XGTACX_site7093],10.6 ± 0.3
11,TTTTATAATTTCTTCTGTACATATATATGAAAATAT [XGTACX_site74],11 ± 0.72
12,TCAACCAAAACATAAGCATGCAATATATTTTTATAC [TGCATGCA_site560],9.79 ± 0.099
13,CACAAAGACACAAACACACACACACCCACATACATA [CACACA_site452],10.4 ± 0.4
14,ATTTCCCTATATAGAGCATGCACTATATTCAAATGA [TGCATGCA_site531],9.915 ± 0.035
15,AACAAAAACACTTTTACACACATAAGTAAAATATAT [CACACA_site1994],10.2 ± 0.26
16,TACTTATTTAAAATAGTGCATGAATAGAAGATATAT [GTGCAC_site9756],10.1 ± 0.23
17,TTATATATTTTTATGTGTACTTATATATATATATAT [XGTACX_site6211],11.7 ± 1.1
18,TAAAGAAACTATTCAACACACGGTCTAATTATTACA [CACACA_site1064],9.99 ± 0.014
19,ATAAAAAAAATAAAAAGTACAAAAAAAAAAAATGGA [XGTACX_site136],11.3 ± 0.71
20,ATACAATTTATTTTAACACACGAATGAATTGATTAT [CACACA_site4160],9.78 ± 0.26
21,ATACAAATATACTTTTGTACGAAGAAATATATATAT [XGTACX_site3912],10.6 ± 0.41
22,GGTTCATATCTTAACACACACATACATATTATAGAT [CACACA_site7392],10.2 ± 0.13

row,Sequence,gcPBM binding intensity (ln)
1,TATAAATATATATTTTGTACTTAATATAAATTTATA [XGTACX_site7996],11 ± 0.62
2,AAAAATAAACGACAGTGTACTAAATATTTAATTTTC [XGTACX_site3580],11.1 ± 0.65
3,TATTCTAAAGAAATTACACACATGCAATGAAAAAAA [CACACA_site6895],9.74 ± 0.11
4,CAGGGCAGGGGGAAGGGTACACATAAAAGAAAATAA [XGTACX_site172],11.7 ± 1.1
5,AAAAGGAACAGACACACACACATATATAAATATGTA [CACACA_site7656],9.94 ± 0.25
6,TTTAATCAATGATTTAATGAAAAAAGCAAAAAAAAA [GTGCAC_negctrl_site213],9.87 ± 0.18
7,CGTTTGGTACACGTAGTGTTTTCGTTTGAATGTACC [GTGCAC_negctrl_site201],11.4 ± 0.94
8,TTTAATTTTCCCTTCACACATAATATATATCTGTAT [CACACA_site5370],9.78 ± 0.028
9,GACATATATAGCAATCGTACATATATTATAAAAGGT [XGTACX_site6891],11 ± 0.47
10,TTTTTTTATATTATACGCACTAATATATATATATAT [XGTACX_negctrl_site40],10.4 ± 0.4
11,TAACACTTTTTTTTTCGTACATATATTATATATATA [XGTACX_site5470],10.9 ± 0.42
12,AAATAGACATAAAAAGGTACACAAATTGTGTATTAA [XGTACX_site527],11.4 ± 0.74
13,TTATTAAAATATTAAAGTACAAAAAAAATAAATAAA [XGTACX_site6507],11.1 ± 0.6
14,TTATGTATATTATAAATTAATACATTTAAATTAATA [CACACA_negctrl_site34],9.575 ± 0.035
15,GTATATAATTTATGTGCACACACTCCTATTTTTAGC [CACACA_site49],10.7 ± 0.42
16,AATTATATTAATATATAATAAAATAGGATGTTATTT [XGTACX_negctrl_site309],9.52 ± 0.28
17,CTTATTTTATGTTATACACACAAAGAAAAAAAATAA [CACACA_site2165],10.2 ± 0.2
18,ATATATATATTTAAGGTGCGATTTTGTTATATTTAA,9.9 ± 0.2
19,TTTTTATTAGGACATGCATACAAAATTAAAAAAAAT [TGCATGCA_site258],10.5 ± 0.52
20,AAAAAAAAAAAAAATTGTACCCAAATATTTTTGTAG [XGTACX_site8303],11.2 ± 0.62
21,TATTAATTTATTTGTTGTACGTAAATATGCTTGTTT [XGTACX_site6591],11.6 ± 0.89
22,TATAAAATACTGTATCGATGGGGGAGGGCGCAGGGG [TGCATGCA_negctrl_site250],11.6 ± 0.76

row,Sequence,gcPBM binding intensity (ln)
1,AAAAAAAAAAAAAAAAAAAAAAAAAAAGATTATGAG [CACACA_negctrl_site1088],11.1 ± 0.6
2,TTTTAAGTTTTTGAATGTACGTAATTTGTAAATTCT [XGTACX_site2448],11.2 ± 0.83
3,TCAAATGTATATAATTGTACTTATCCTTTTCATTTT [XGTACX_site4879],11.2 ± 0.67
4,AAAAATTAGAAACACACACACATATATATATATATT [CACACA_site1042],9.84 ± 0.13
5,TAATGGAGAAAATAATGTACTTAGATATTTGTTCTA [XGTACX_site6312],10.8 ± 0.51
6,TTACTTGTTTATTTTTTTTTTTTTTTTTTTTTTGTT [TGCATGCA_negctrl_site103],9.47 ± 0.028
7,CATATATAGATATATACACACATATAGATTTTCTTT [CACACA_site6797],9.71 ± 0.16
8,AACTATAATTAAAGGATGCACTTGAAGGCATTTCAA [GTGCAC_site9689],9.875 ± 0.007
9,TATTCATAACAATGATGTACATATATTTTTTTTTTC [XGTACX_site5619],11.2 ± 0.71
10,AAGAACAAACAAAATAGTACAATATATATATATATA [XGTACX_site4258],11.2 ± 0.76
11,TTTAAATATTTTATAGCATGCTACCAATATGTATAT [TGCATGCA_site291],10.1 ± 0.23
12,TACACCCAGAAATGCACACACATATATATATATATA [CACACA_site5289],10.1 ± 0.23
13,ATGAACATGTGACAATGTACATTTATATCTTAAGAA [XGTACX_site4960],10.8 ± 0.43
14,ATAATATATATATATATGTATGTATATATGTATGTA [GTGCAC_negctrl_site575],9.71 ± 0.17
15,TTAACATAAATTGTGTCATTTTTTTTTTTTTTTTTA [CACACA_negctrl_site1221],9.725 ± 0.021
16,TATTTTTTAATTGTTTCACACATTATTTTTTACATA [CACACA_site6078],9.92 ± 0.17
17,TATTCTTATTATTACACACACAATTATATTTACCCC [CACACA_site6381],10.28 ± 0.049
18,TATATATATATAATAGCATGCTATATTATATATATA [TGCATGCA_site886],9.59 ± 0.73
19,TATAAACAGACGAAAACACACATATGTAGATATATA [CACACA_site6371],10.07 ± 0.085
20,TATATATTAGTGTTGACACACACAAAAAAAAAAAAA [CACACA_site8392],10.2 ± 0.62
21,TTAACACATTTTATGTGTACTCATATGATTTAAAAT [XGTACX_site7516],11.4 ± 1
22,TTAAAATGAAGAAGTGCACACATATATATATTTATA [CACACA_site8063],10.4 ± 0.2

row,Sequence,gcPBM binding intensity (ln)
1,AATTTTTTTTTCTTTTGTACGTAAATATGTGTAGGC [XGTACX_site215],11.4 ± 1.1
2,AGATTTCAAGGTAATAGATCAATTTTAATTTGTAAA [CACACA_negctrl_site514],9.645 ± 0.064
3,ATTTTTTTTTTTTTTTTTTTTTTTTTTTTTTTTTTT [CACACA_negctrl_site1364],11.1 ± 0.6
4,ATCAGGCAAAATTTTTGTACATATATATTTTATTTT [XGTACX_site1245],10.9 ± 0.43
5,ATTTTTTTTTTTTTTTTTTTTTTTTATGAATGTTAT [CACACA_negctrl_site1319],9.6 ± 0.014
6,TTATAAATGTGCGTAGTGCATAAACAAAAAAAAAAT,10.4 ± 0.3
7,AAAAAAAAAAAACATACACACATTGAACTTTTATAT [CACACA_site3250],9.955 ± 0.021
8,ATAAAATAAAAATTCTGTACAGAATTAAAAAAATAT [XGTACX_site6961],10.9 ± 0.53
9,TATATGTGATAACACGCACACAAATGTATATAATTT [CACACA_site2593],10.3 ± 0.17
10,AAAAAAAGTAAAAAGTGTACTTAATATATATATATA [XGTACX_site838],11.3 ± 0.86
11,TGTAGCATTTAATTCACACATAAAAAATGTATCCAT [CACACA_site4986],10.3 ± 0.34
12,TACACACCTAACTATGCATGCATCAATATAGTGGAT [TGCATGCA_site443],9.66 ± 0.21
13,TTTTATATAAATATCACACACACACGCATGTTTTAA [CACACA_site6187],10.1
14,TACAATATACCTACTTGTACACAAAATAAAAGTAGT [XGTACX_site6029],11.4 ± 0.73
15,AAAAAAAAATTAAACATACACACGTTACTATTTTTA [CACACA_site1687],9.64 ± 0.26
16,AATGAAAAATTGTAATGTACATAAATAAATAAATAA [XGTACX_site4048],11.1 ± 0.48
17,ATCATAATTTATTATACACACAATACGTGACCTATT [CACACA_site6977],10.6 ± 0.42
18,TATTCATGCATATACACACACATATATATATATTTT [CACACA_site3955],10.025 ± 0.007
19,ACCACCATATAACATACATGCATCTTTTTTCCCTTC [TGCATGCA_site583],10.11 ± 0.057
20,GAACTCATTTAATATTGTACATTCTGATATTTTTTA [XGTACX_site5995],10.6 ± 0.22
21,AAAAATAAAACAATTACACACATAACTTTATTTTTA [CACACA_site6563],9.97 ± 0.071
22,AAAAGCTTAAAAAATTGTACATAAATGAATAAATAT [XGTACX_site5201],11 ± 0.71
